{
  "source": "patent US20110092557A1",
  "about": "“Neuraminidase Inhibitors And Compositions And Methods Related Thereto” ([…]., priority 2008, published 2011)",
  "key": {"[1]": {"tested_on": "influenza virus neuraminidase (NA)", "conditions": "500 μM inhibitor; virus suspension A/Udorn/72 H3N2"}, "[2]": {"target": "influenza virus neuraminidase (NA) (Influenza A virus, UniProt P03470)", "sequence (P03470 whole entry, looked up)": "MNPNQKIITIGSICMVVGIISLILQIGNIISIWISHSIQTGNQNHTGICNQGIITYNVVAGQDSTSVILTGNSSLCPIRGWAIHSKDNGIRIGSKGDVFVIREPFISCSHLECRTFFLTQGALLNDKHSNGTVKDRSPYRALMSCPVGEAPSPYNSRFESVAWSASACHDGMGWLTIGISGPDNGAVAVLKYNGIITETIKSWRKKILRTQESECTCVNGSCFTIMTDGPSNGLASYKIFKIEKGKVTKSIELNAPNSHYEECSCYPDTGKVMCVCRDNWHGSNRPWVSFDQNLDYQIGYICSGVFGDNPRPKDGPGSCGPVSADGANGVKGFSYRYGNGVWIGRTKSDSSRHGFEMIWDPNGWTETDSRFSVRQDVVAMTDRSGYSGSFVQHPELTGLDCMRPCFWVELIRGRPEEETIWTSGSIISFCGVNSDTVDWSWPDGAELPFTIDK", "experiment": "Neuraminidase inhibition assay (fluorimetric, MUN substrate), A/H1N1/WSN/33", "type": "biochemical, influenza A virus A/H1N1/WSN/33", "conditions": "virus suspension A/WSN/33 H1N1"}, "[3]": {"conditions": "MES buffer pH 6.5, 37° C., 3 independent experiments, read-out: IC50 (μM) A/WSN/33 H1N1"}},
  "note": "Read-outs that look alike come from different tables or passages of the source.",
  "data": [
    {"molecule": "CC[C@H](C)[C@H](Nc1ccc([N+](=O)[O-])cc1C#N)C(=O)O", "note": "[NCP-Iso, (2S,3S)-2-(2-cyano-4-nitrophenylamino)-3-methylpentanoic acid]", "values": [
      {"measurement": "% inhibition at 500 μM A/Udorn/72 H3N2", "setting": "[1]", "result": ">25", "unit": "%"},
      {"measurement": "inhibition at 500 µM", "setting": "[2]; 500 μM inhibitor", "result": "≥ 40", "unit": "%"}
    ]},
    {"molecule": "O=C(O)CNc1ccc([N+](=O)[O-])cc1[N+](=O)[O-]", "note": "[DNP-Gly, dinitrophenyl glycine]", "values": [
      {"measurement": "% inhibition at 500 μM A/Udorn/72 H3N2", "setting": "[1]", "result": ">25", "unit": "%"},
      {"measurement": "% inhibition at 500 μM A/WSN/33 H1N1", "setting": "[2]; 500 μM inhibitor", "result": ">25", "unit": "%"}
    ]},
    {"molecule": "O=C(O)[C@H](CO)Nc1ccc([N+](=O)[O-])cc1[N+](=O)[O-]", "note": "[DNP-Ser, dinitrophenyl serine]", "values": [
      {"measurement": "% inhibition at 500 μM A/Udorn/72 H3N2", "setting": "[1]", "result": "≧50%"},
      {"measurement": "IC50", "setting": "[2]; [3]", "result": "< 700", "unit": "µM"}
    ]},
    {"molecule": "nitrocyanophenyl alanine [NCP-Ala]", "values": [
      {"measurement": "% inhibition at 500 μM A/Udorn/72 H3N2", "setting": "[1]", "result": ">25", "unit": "%"},
      {"measurement": "% inhibition at 500 μM A/WSN/33 H1N1", "setting": "[2]; 500 μM inhibitor", "result": ">25", "unit": "%"}
    ]},
    {"molecule": "NC(N)=NCCCC(Nc1ccc([N+](=O)[O-])cc1[N+](=O)[O-])C(=O)O", "note": "(centres unmarked) [DNP-Arg, dinitrophenyl arginine]", "values": [
      {"measurement": "% inhibition at 500 μM A/Udorn/72 H3N2", "setting": "[1]", "result": ">25", "unit": "%"},
      {"measurement": "% inhibition at 500 μM A/WSN/33 H1N1", "setting": "[2]; 500 μM inhibitor", "result": ">25", "unit": "%"}
    ]},
    {"molecule": "NC(Cc1ccc(Oc2ccc([N+](=O)[O-])cc2[N+](=O)[O-])cc1)C(=O)O", "note": "(centres unmarked) [DNP-Tyr*, dinitrophenyl tyrosine]", "values": [
      {"measurement": "IC50", "setting": "[2]; mM, read-out: IC50 A/WSN/33 H1N1", "result": "> 1000", "unit": "µM"}
    ]},
    {"molecule": "NC(=O)CC[C@H](Nc1ccc([N+](=O)[O-])cc1[N+](=O)[O-])C(=O)O", "note": "[DNP-Gln, dinitrophenyl glutamine]", "values": [
      {"measurement": "% inhibition at 500 μM A/Udorn/72 H3N2", "setting": "[1]", "result": ">25", "unit": "%"},
      {"measurement": "% inhibition at 500 μM A/WSN/33 H1N1", "setting": "[2]; 500 μM inhibitor", "result": ">25", "unit": "%"}
    ]},
    {"molecule": "dinitrophenyl histidine [DNP-His*]", "values": [
      {"measurement": "% inhibition at 500 μM A/Udorn/72 H3N2", "setting": "[1]", "result": "≧50%"},
      {"measurement": "IC50", "setting": "[2]; [3]", "result": "< 700", "unit": "µM"}
    ]},
    {"molecule": "O=C(O)C(Cc1c[nH]c2ccccc12)Nc1ccc([N+](=O)[O-])cc1[N+](=O)[O-]", "note": "(centres unmarked) [DNP-Trp, dinitrophenyl tryptophan]", "values": [
      {"measurement": "% inhibition at 500 μM A/Udorn/72 H3N2", "setting": "[1]", "result": "≧50%"},
      {"measurement": "% inhibition at 500 μM A/WSN/33 H1N1", "setting": "[2]; 500 μM inhibitor", "result": "≧40%"}
    ]},
    {"molecule": "CC(C)[C@H](Nc1ccc([N+](=O)[O-])cc1[N+](=O)[O-])C(=O)O", "note": "[DNP-Val, dinitrophenyl valine]", "values": [
      {"measurement": "% inhibition at 500 μM A/Udorn/72 H3N2", "setting": "[1]", "result": ">25", "unit": "%"},
      {"measurement": "IC50", "setting": "[2]; [3]", "result": "< 700", "unit": "µM"}
    ]},
    {"molecule": "nitrocyanophenyl valine [NCP-Val]", "values": [
      {"measurement": "% inhibition at 500 μM A/Udorn/72 H3N2", "setting": "[1]", "result": ">25", "unit": "%"},
      {"measurement": "% inhibition at 500 μM A/WSN/33 H1N1", "setting": "[2]; 500 μM inhibitor", "result": ">25", "unit": "%"}
    ]},
    {"molecule": "O=C(O)C1CCCN1c1ccc([N+](=O)[O-])cc1[N+](=O)[O-]", "note": "(centres unmarked) [DNP-Pro*, dinitrophenyl proline]", "values": [
      {"measurement": "IC50", "setting": "[2]; [3]", "result": "< 700", "unit": "µM"}
    ]},
    {"molecule": "C[C@H](Nc1ccc([N+](=O)[O-])cc1[N+](=O)[O-])C(=O)O", "note": "[DNP-Ala, dinitrophenyl alanine]", "values": [
      {"measurement": "% inhibition at 500 μM A/Udorn/72 H3N2", "setting": "[1]", "result": ">25", "unit": "%"},
      {"measurement": "% inhibition at 500 μM A/WSN/33 H1N1", "setting": "[2]; 500 μM inhibitor", "result": "≧40%"}
    ]},
    {"molecule": "CSCC[C@H](Nc1ccc([N+](=O)[O-])cc1[N+](=O)[O-])C(=O)O", "note": "[DNP-Met, dinitrophenyl methionine]", "values": [
      {"measurement": "% inhibition at 500 μM A/Udorn/72 H3N2", "setting": "[1]", "result": ">25", "unit": "%"},
      {"measurement": "% inhibition at 500 μM A/WSN/33 H1N1", "setting": "[2]; 500 μM inhibitor", "result": "≧40%"}
    ]}
  ]
}
